# In all, about 33,000 sequences were measured (“E-score (-0.5 to 0.5)”: median about -0.04, highest 2% from about 0.36 on). The list shows a part of the results.
# Target: T1, Hmlalpha2 (UniProt P0CY09)
# T1 sequence: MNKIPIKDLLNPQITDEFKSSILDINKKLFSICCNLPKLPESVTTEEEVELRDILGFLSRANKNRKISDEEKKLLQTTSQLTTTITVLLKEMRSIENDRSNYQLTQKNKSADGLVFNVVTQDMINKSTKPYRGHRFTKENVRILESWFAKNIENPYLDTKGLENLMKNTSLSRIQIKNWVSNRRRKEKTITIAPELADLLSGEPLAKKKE
# Experiment: PBM E-score (8-mer binding enrichment) (E-score (-0.5 to 0.5)); higher = stronger / more preferred TF binding; most listed sequences are background and not binding sites
# Settings: protein concentration: 200 nM; construct: GST-full length
# In short: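 E-scores (a modified Wilcoxon-Mann-Whitney statistic) were assigned by the Universal PBM Analysis Suite to every ungapped eight-base word pooled with its reverse complement. The input came from universal all-10-mer Agilent arrays made double-stranded by primer extension and probed with GST-tagged yeast transcription factors at about 100-200 nM. Fluorescent anti-GST detected bound protein, and masliner normalised the scans.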
row,Sequence,PBM E-score
1,AGCAGTGC,-0.118
2,CAACCTTG,0.0793
3,CGGTGGGC,-0.262
4,AATTTACT,0.296
5,ACATCGAC,0.112
6,TAGGGTCA,-0.141
7,CTCAGATA,-0.0173
8,AACTTCGA,0.085
9,AATAACAT,0.412
10,AGAACGTG,0.116
11,CAGGCGCA,-0.114
12,AAGTATGT,0.286
13,CTTATTGC,-0.172
14,GATTAGCC,-0.0296
15,CAATGCCG,-0.0554
16,AAATACGG,0.0784
17,TATTCTCA,0.113
18,CTTCGACC,-0.167
19,AATTTGCC,-0.173
20,ATACCAAT,0.033
21,ATAAGAAC,0.21
22,CACATGAA,0.237
23,CTAAGAAC,-0.0411
24,TCTTCGAA,-0.118
25,ATCAGCGG,-0.205

row,Sequence,PBM E-score
1,AACTTATA,0.219
2,ACGAGTAG,-0.0379
3,CAGCACGG,-0.0953
4,CCCTAGTC,-0.313
5,AGGCTCTC,-0.123
6,CCACCGTA,-0.145
7,CTGACGCA,-0.203
8,GAAGGCTC,-0.28
9,CCGTGACC,-0.278
10,CTGTGCAA,0.0797
11,GCAGTGAA,0.0998
12,AACGGTGT,-0.0157
13,CAGTACTC,-0.222
14,CACACATA,0.214
15,CCTGAGCG,-0.14
16,TACGTCAA,0.116
17,AACCCAGA,-0.0627
18,ACCATTAA,0.0917
19,ATTCCTTA,-0.034
20,AACTAATG,0.232
21,ACGGTAAT,-0.0352
22,AGTGATTC,0.0533
23,ACATCAGA,0.0333
24,AGCATTCA,-0.193
25,AAAGGCCC,-0.177

row,Sequence,PBM E-score
1,GATGCATC,0.0847
2,ATCCATAA,-0.0296
3,GGTCACAA,-0.0816
4,GTAGAGTA,0.183
5,GTCCCAAC,0.0725
6,GACTAATC,-0.156
7,ACTAATTC,0.203
8,CAAGGTGC,0.0442
9,AACCTGGC,0.0313
10,CAGTGAAG,-0.0557
11,CCCCTGGC,-0.319
12,CGAGATGA,-0.109
13,ATCTTGGG,-0.051
14,AAACGCCG,0.174
15,AGTCTAAC,-0.0244
16,ACCTCTGA,-0.177
17,GAGAGGGC,-0.278
18,ACCGAATG,0.0693
19,AACCATGT,0.368
20,GCAACACA,0.167
21,CTCGCCAC,-0.153
22,CCCAAGGA,-0.282
23,CATTTAAC,0.325
24,GTATCGAC,0.0754
25,ATTCACCG,-0.119

row,Sequence,PBM E-score
1,CAACGGGG,-0.137
2,CCGTCAAG,-0.166
3,AACAATAA,0.206
4,ATCACCAT,0.0619
5,ATCACATC,-0.00733
6,AATCTGTA,0.186
7,GTCCTACA,0.182
8,GGACGTTA,0.191
9,ACTTGATC,-0.0376
10,AGCATAAG,-0.114
11,AGACTGCT,-0.256
12,AGATCTGC,0.0996
13,GCGTTCCC,-0.135
14,GGTATCCA,-0.112
15,AAACATCT,0.202
16,ACATCCTG,0.195
17,GTTGGTCA,0.0634
18,AACTAGCA,-0.116
19,AGTAATCG,0.23
20,AGCATTGC,0.0222
21,ACGTTTCA,-0.00282
22,CGGCAAAG,-0.188
23,GGGTACAA,0.0999
24,CGACCGGC,-0.152
25,ACCATCAC,-0.0992

row,Sequence,PBM E-score
1,GCGAACTA,-0.101
2,AAAATCCA,0.095
3,AATAGGCG,-0.0915
4,GACTACCC,-0.169
5,CGCCTACC,-0.129
6,AACTCTGT,0.1
7,GCGTAAGA,0.249
8,AGCCTGTA,0.199
9,AGACGTGC,-0.0503
10,AACGGAGG,-0.0611
11,ACCCACAC,-0.0703
12,ATCCCAAG,-0.146
13,GGGCGCTA,-0.15
14,ATCTTATC,-0.0594
15,CGTCCAAG,-0.304
16,TGTCTAAA,0.318
17,AAGTACAG,0.0583
18,AGTTGATG,0.178
19,CCTGGGTC,-0.184
20,AATCGTTC,-0.0133
21,ATCTGAAG,-0.265
22,AAATTGCT,-0.0188
23,CGCAGCAA,0.00477
24,GACGCAGA,-0.0856
25,GAGTTAAA,0.185

row,Sequence,PBM E-score
1,GGAAGGAC,-0.0308
2,GGAGAGCA,0.0263
3,CATAGATG,-0.058
4,GAGGGCGC,-0.258
5,CGAGCGGA,-0.193
6,CAGTAATA,0.271
7,CAATGCAC,0.195
8,GGGACTAC,-0.141
9,CTGATTAA,0.141
10,CTTTTCAC,0.0898
11,AATATGCC,-0.0787
12,CTTGGTAC,0.159
13,AGAGGCTC,-0.387
14,CATTAATG,0.129
15,CCACAGTA,-0.00873
16,ACGGGCAG,0.0314
17,ATTTGTTA,0.266
18,GAGATTAA,0.113
19,AGACTATG,0.0474
20,ATAACCGG,-0.147
21,ATGAGTTC,-0.116
22,GTATTATA,0.318
23,AATATAGT,0.15
24,ATAATTGG,-0.226
25,ATATGAAA,0.063

row,Sequence,PBM E-score
1,TATCAGAA,0.0402
2,TCCGACCA,-0.0996
3,CTGCAGTC,-0.186
4,AGAGTAGC,-0.216
5,AAATTACC,0.171
6,GAGAAAAC,0.0511
7,AAAAAAAT,0.0701
8,TGGTAACA,0.239
9,CTCAGAGC,-0.256
10,GAAAACGA,-0.0996
11,CGCGCCTA,0.109
12,GAGCAGAA,0.0114
13,TGAGTAAA,0.265
14,ACTTGGAT,0.0128
15,GGATAGGA,-0.212
16,TCGCGCAA,0.209
17,ACAAGGCG,0.158
18,TTAAATAA,0.157
19,CAGGAATG,-0.0888
20,CGTGGAGC,-0.23
21,ATCCGTAA,-0.0845
22,CAACACTA,0.169
